Where a name gives a salt, the structure may show the parent alone. ± gives the standard error. In all, about 1,300 compounds went through this assay and about 130 (10%) showed an effect of 50% or more. This is a selection; strong and weak results do not stand in their true shares.
Test system: Trichoderma virens ATCC 9645
Test: growth yield (OD600) with compound + IPBC relative to untreated control; higher = less growth inhibition
Conditions: compound concentration: 100 uM, IPBC concentration: 200 ng/ml
In short: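 Spores of Trichoderma virens ATCC 9645, taken from potato dextrose agar plates grown for 7 days, were suspended at 15,000 spores ml^−1 in potato dextrose broth. In 96-well plates, 100 μl aliquots held library compounds at 100 μM final, either alone or together with a biocide at 200 ng ml^−1, and were grown at 30 °C. A BioTek EL800 read OD600 at 40 h and 72 h. Growth values are given relative to the control lacking both agents and are means of duplicate screens.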

| Structure (SMILES) | growth yield (40 h) | growth yield (72 h) |
| --- | --- | --- |
| CC(C)(C)NC[C@H](O)COc1cccc2c1CCCC2=O [(-) -Levobunolol hydrochloride] + CCCCNC(=O)OCC#CI [3-iodo-2-propynyl butylcarbamate (IPBC)] | 97.8 ± 16% | 99.2 ± 11% |
| Nc1ncn(C2OC(CO)C(O)C2O)c(=O)n1 (stereo not given) [Azacytidine-5] + CCCCNC(=O)OCC#CI [3-iodo-2-propynyl butylcarbamate (IPBC)] | 67.2 ± 3% | 91.9 ± 1.1% |
| N[C@@H](Cc1ccc(O)c(O)c1)C(=O)O [Levodopa] + CCCCNC(=O)OCC#CI [3-iodo-2-propynyl butylcarbamate (IPBC)] | 87.4 ± 0.95% | 89.98 ± 0.63% |
| COc1ccc(-c2ccc3cc(C(=O)O)ccc3c2)cc1C12CC3CC(CC(C3)C1)C2 [Adapalene] + CCCCNC(=O)OCC#CI [3-iodo-2-propynyl butylcarbamate (IPBC)] | 91.5 ± 1.6% | 92.9 ± 1.7% |
| CCCC(C)C1(CC)C(=O)NC(=O)NC1=O (stereo not given) [Pentobarbital] + CCCCNC(=O)OCC#CI [3-iodo-2-propynyl butylcarbamate (IPBC)] | 87.4 ± 2.9% | 94.2 ± 2.7% |
| CCCCc1oc2ccccc2c1C(=O)c1cc(I)c(OCCN(CC)CC)c(I)c1 [Amiodarone hydrochloride] + CCCCNC(=O)OCC#CI [3-iodo-2-propynyl butylcarbamate (IPBC)] | 2.06 ± 0.16% | 2.41 ± 0.1% |
| Cc1cccc(N(C)C(=S)Oc2ccc3ccccc3c2)c1 [Tolnaftate] + CCCCNC(=O)OCC#CI [3-iodo-2-propynyl butylcarbamate (IPBC)] | 0% | 35.9 ± 0.84% |
| CC1(C)O[C@@H]2C[C@H]3[C@@H]4C[C@H](F)C5=CC(=O)CC[C@]5(C)[C@H]4[C@@H](O)C[C@]3(C)[C@]2(C(=O)CO)O1 [Flurandrenolide] + CCCCNC(=O)OCC#CI [3-iodo-2-propynyl butylcarbamate (IPBC)] | 89.6 ± 2.9% | 92.1 ± 2.1% |
| NNC(=O)c1ccncc1 [Isoniazid] + CCCCNC(=O)OCC#CI [3-iodo-2-propynyl butylcarbamate (IPBC)] | 110 ± 1.6% | 111 ± 3.6% |
| CCN(CC)CCN[C@@H](C(=O)OCCC(C)C)c1ccccc1 [Camylofine chlorhydrate] + CCCCNC(=O)OCC#CI [3-iodo-2-propynyl butylcarbamate (IPBC)] | 81.01 ± 0.64% | 88.52 ± 0.84% |
| CN1CCCN=C1/C=C/c1cccs1 [Pyrantel tartrate] + CCCCNC(=O)OCC#CI [3-iodo-2-propynyl butylcarbamate (IPBC)] | 96.6 ± 8.3% | 101 ± 4.3% |
| C#C[C@]1(O)CC[C@H]2[C@@H]3CCC4=Cc5oncc5C[C@]4(C)[C@H]3CC[C@@]21C [Danazol] + CCCCNC(=O)OCC#CI [3-iodo-2-propynyl butylcarbamate (IPBC)] | 82 ± 12% | 96.4 ± 9.5% |
| O=C(Nc1ccc([N+](=O)[O-])cc1Cl)c1cc(Cl)ccc1O [Niclosamide] + CCCCNC(=O)OCC#CI [3-iodo-2-propynyl butylcarbamate (IPBC)] | 83.7 ± 2.4% | 90.4 ± 2.5% |
| CC(C)C(=O)c1c(C(C)C)nn2ccccc12 [Ibudilast] + CCCCNC(=O)OCC#CI [3-iodo-2-propynyl butylcarbamate (IPBC)] | 60.52 ± 0.48% | 73.1 ± 0.1% |
| CC(C)NCC(O)COc1cccc2[nH]ccc12 (stereo not given) [Pindolol] + CCCCNC(=O)OCC#CI [3-iodo-2-propynyl butylcarbamate (IPBC)] | 105 ± 2.7% | 102.25 ± 0.1% |
| C[C@]12CCC(=O)C=C1C=C[C@@H]1[C@@H]2CC[C@@]2(C)[C@H]1CC[C@@]2(O)CCC(=O)O [Canrenoic acid potassium salt] + CCCCNC(=O)OCC#CI [3-iodo-2-propynyl butylcarbamate (IPBC)] | 85.5 ± 8.9% | 90.4 ± 6.1% |
| OC(CCN1CCCC1)(c1ccccc1)C1CCCCC1 (stereo not given) [Procyclidine hydrochloride] + CCCCNC(=O)OCC#CI [3-iodo-2-propynyl butylcarbamate (IPBC)] | 84.8 ± 2.9% | 91.66 ± 0.63% |
| CCCCOc1ccc(C(=O)CCN2CCCCC2)cc1 [Dyclonine hydrochloride] + CCCCNC(=O)OCC#CI [3-iodo-2-propynyl butylcarbamate (IPBC)] | 75.4 ± 1.1% | 90.8 ± 1.5% |
| Cn1nnc2c(C(N)=O)ncn2c1=O [Temozolomide] + CCCCNC(=O)OCC#CI [3-iodo-2-propynyl butylcarbamate (IPBC)] | 83.5 ± 1.3% | 88.5 ± 2.1% |
| CC(C)(C)CC(C)(C)c1ccc(OCCOCC[N+](C)(C)Cc2ccccc2)cc1 [Benzethonium chloride] + CCCCNC(=O)OCC#CI [3-iodo-2-propynyl butylcarbamate (IPBC)] | 3.18 ± 0.32% | 2.52 ± 0.42% |

| Structure (SMILES) | growth yield (40 h) | growth yield (72 h) |
| --- | --- | --- |
| CC(C)(C)NC(=O)[C@H]1CC[C@H]2[C@@H]3CC[C@H]4NC(=O)C=C[C@]4(C)[C@H]3CC[C@]12C [Finasteride] + CCCCNC(=O)OCC#CI [3-iodo-2-propynyl butylcarbamate (IPBC)] | 84.2 ± 7.9% | 87.5 ± 6.7% |
| Nc1nc(N)c2nc(-c3ccccc3)c(N)nc2n1 [Triamterene] + CCCCNC(=O)OCC#CI [3-iodo-2-propynyl butylcarbamate (IPBC)] | 88.31 ± 0.64% | 94.7 ± 2.6% |
| Cc1c(Nc2ncccc2C(=O)O)cccc1C(F)(F)F [Flunixin meglumine] + CCCCNC(=O)OCC#CI [3-iodo-2-propynyl butylcarbamate (IPBC)] | 80.2 ± 7.5% | 92.3 ± 5.2% |
| CC[C@H](c1ccc(O)cc1)[C@@H](CC)c1ccc(O)cc1 [Hexestrol] + CCCCNC(=O)OCC#CI [3-iodo-2-propynyl butylcarbamate (IPBC)] | 68.9 ± 5.4% | 88.4 ± 3.9% |
| C[C@H](CS)C(=O)N1CCC[C@H]1C(=O)O [Captopril] + CCCCNC(=O)OCC#CI [3-iodo-2-propynyl butylcarbamate (IPBC)] | 90.1 ± 1.1% | 90.1 ± 1.1% |
| CN(Cc1cc(Br)cc(Br)c1N)C1CCCCC1 [Bromhexine hydrochloride] + CCCCNC(=O)OCC#CI [3-iodo-2-propynyl butylcarbamate (IPBC)] | 85.5 ± 4.8% | 91.1 ± 1.4% |
| CC1(C)O[C@@H]2C[C@H]3[C@@H]4C[C@H](F)C5=CC(=O)C=C[C@]5(C)[C@H]4[C@@H](O)C[C@]3(C)[C@]2(C(=O)CO)O1 [Flunisolide] + CCCCNC(=O)OCC#CI [3-iodo-2-propynyl butylcarbamate (IPBC)] | 97.1 ± 11% | 97.5 ± 10% |
| NCCc1ccc(O)c(O)c1 [Dopamine hydrochloride] + CCCCNC(=O)OCC#CI [3-iodo-2-propynyl butylcarbamate (IPBC)] | 108 ± 2.7% | 102 ± 1.5% |
| Cc1c(O)cccc1C(=O)N[C@@H](CSc1ccccc1)[C@H](O)CN1C[C@H]2CCCC[C@H]2C[C@H]1C(=O)NC(C)(C)C [Nelfinavir mesylate] + CCCCNC(=O)OCC#CI [3-iodo-2-propynyl butylcarbamate (IPBC)] | 78.2 ± 2.2% | 92.61 ± 0.1% |
| CCSc1ccc2c(c1)N(CCCN1CCN(C)CC1)c1ccccc1S2 [Thiethylperazine dimalate] + CCCCNC(=O)OCC#CI [3-iodo-2-propynyl butylcarbamate (IPBC)] | 4.45 ± 0.32% | 3.25 ± 0.1% |
| CN(C)CCC(c1ccccc1)c1ccccn1 (stereo not given) [Pheniramine maleate] + CCCCNC(=O)OCC#CI [3-iodo-2-propynyl butylcarbamate (IPBC)] | 88.3 ± 1.3% | 91.3 ± 1.4% |
| CC(=O)OC(C)C[N+](C)(C)C (stereo not given) [Methacholine chloride] + CCCCNC(=O)OCC#CI [3-iodo-2-propynyl butylcarbamate (IPBC)] | 111 ± 3.8% | 105 ± 4.5% |
| CCCCOc1ccc(CC(=O)NO)cc1 [Bufexamac] + CCCCNC(=O)OCC#CI [3-iodo-2-propynyl butylcarbamate (IPBC)] | 99.59 ± 0.16% | 95.438 ± 1e-14% |
| C=CCc1ccccc1OCC(O)CNC(C)C (stereo not given) [Alprenolol hydrochloride] + CCCCNC(=O)OCC#CI [3-iodo-2-propynyl butylcarbamate (IPBC)] | 93.7 ± 12% | 97.1 ± 7.8% |
| Cc1ccc(O)c([C@H](CCN(C(C)C)C(C)C)c2ccccc2)c1 [Tolterodine tartrate] + CCCCNC(=O)OCC#CI [3-iodo-2-propynyl butylcarbamate (IPBC)] | 85.8 ± 4.1% | 90.19 ± 0.42% |
| O=C(O)c1cc(=O)c2c(OCC(O)COc3cccc4oc(C(=O)O)cc(=O)c34)cccc2o1 [Cromolyn disodium salt] + CCCCNC(=O)OCC#CI [3-iodo-2-propynyl butylcarbamate (IPBC)] | 107 ± 20% | 103 ± 15% |
| Clc1ccc(COC(Cn2ccnc2)c2ccc(Cl)cc2Cl)cc1 (stereo not given) [Econazole nitrate] + CCCCNC(=O)OCC#CI [3-iodo-2-propynyl butylcarbamate (IPBC)] | 3.18 ± 0.32% | 2.73 ± 0.42% |
| Clc1ccccc1C(c1ccccc1)(c1ccccc1)n1ccnc1 [Clotrimazole] + CCCCNC(=O)OCC#CI [3-iodo-2-propynyl butylcarbamate (IPBC)] | 5.08 ± 0.32% | 3.46 ± 0.1% |
| C=CC[N@@+]12CC[C@@]34c5ccccc5N5/C=C6/[C@H]7C[C@H]8[C@@]9(CC[N@@+]8(CC=C)C/C7=C/CO)c7ccccc7N(/C=C(/[C@@H](C[C@@H]31)/C(=C\CO)C2)[C@H]54)[C@@H]69 [Alcuronium chloride] + CCCCNC(=O)OCC#CI [3-iodo-2-propynyl butylcarbamate (IPBC)] | 6.83 ± 0.16% | 35.4 ± 3.4% |
| CCCC(C(=O)OCCN(CC)CC)(c1ccccc1)c1ccccc1 [Proadifen hydrochloride] + CCCCNC(=O)OCC#CI [3-iodo-2-propynyl butylcarbamate (IPBC)] | 75 ± 0.95% | 97.1 ± 2.7% |
